Each structure is given as a SMILES string. This is one part of the list. Many values rest on one well or one pass, so single values are uncertain.
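Further: cell number obtained by counting DAPI-stained nuclei in high-throughput microscope images with image analysis software, screen run in 1,536-well plates.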

This test relates to UACC62. Briefly: cell count relative to DMSO control; melanoma cells; higher = more viable cells. The conditions noted are these: library dose: low library concentration; 72 h.
In the case of `O=C(CCCCCCC(=O)Nc1ccccc1)NO` [vorinostat] + Cn1cncc1[C@@](N)(c1ccc(Cl)cc1)c1ccc2c(c1)c(-c1cccc(Cl)c1)cc(=O)n2C [tipifarnib] (first compound 0.08 µM, partner dose 0.01 µM), the cell count is 77.4%.
Turning to `O=C(CCCCCCC(=O)Nc1ccccc1)NO` [vorinostat] + O=C(Nc1cccc(Cl)c1)Nc1ncc(CCNc2ncnc3ccsc23)s1 [SNS314] (first compound 0.08 µM, partner dose 0.0008 µM), the cell count turned out to be 84.8%.
`Nc1cccc2c1CN(C1CCC(=O)NC1=O)C2=O` (centres undefined) [lenalidomide] + Cn1cncc1[C@@](N)(c1ccc(Cl)cc1)c1ccc2c(c1)c(-c1cccc(Cl)c1)cc(=O)n2C [tipifarnib] (first compound 1 µM, partner dose 0.01 µM) had a cell count of 77.2%.
For `COCC[n+]1c2c(n(Cc3cnccn3)c1C)C(=O)c1ccccc1C2=O` + CC(C)(C)c1cnc(CSc2cnc(NC(=O)C3CCNCC3)s2)o1 [SNS-032] (first compound 0.0004 µM, partner dose 0.01 µM) the value was 76.8%; for `OCc1c[nH]c2ccccc12` [Indole-3-carbinol] + COC(=O)c1sccc1S(=O)(=O)Nc1ccc(Nc2ccccc2)cc1OC [GSK0660] (first compound 0.8 µM, partner dose 1 µM), 91.3%; for `COCC[n+]1c2c(n(Cc3cnccn3)c1C)C(=O)c1ccccc1C2=O` + CN(NC(=O)CC(=O)NN(C)C(=S)c1ccccc1)C(=S)c1ccccc1 [STA4783] (first compound 0.0004 µM, partner dose 0.006 µM), 90.2%.
The result for `O=C(CCCCCCC(=O)Nc1ccccc1)NO` [vorinostat] + CO[C@@H]1[C@H](N(C)C(=O)c2ccccc2)C[C@H]2O[C@]1(C)n1c3ccccc3c3c4c(c5c6ccccc6n2c5c31)C(=O)NC4 [Midostaurin] (first compound 0.08 µM, partner dose 0.08 µM) reads 92.5%.
The result for `OCc1c[nH]c2ccccc12` [Indole-3-carbinol] + O=S(=O)(c1ccccc1)N(CC(F)(F)F)c1ccc(C(O)(C(F)(F)F)C(F)(F)F)cc1 [T0901317] (first compound 0.8 µM, partner dose 1.4 µM) reads 102%; that for `C#Cc1cccc(Nc2ncnc3cc(OCCOC)c(OCCOC)cc23)c1` [erlotinib] + CC(C)(C)c1cnc(CSc2cnc(NC(=O)C3CCNCC3)s2)o1 [SNS-032] (first compound 0.8 µM, partner dose 0.01 µM), 97.7%.
Compound `OCc1c[nH]c2ccccc12` [Indole-3-carbinol] + Oc1cc(-c2nc(-c3ccccc3)[nH]c2-c2ccncc2)ccc1Cl [L779450] (first compound 0.8 µM, partner dose 0.2 µM) displayed a cell count of 85.5%.
In the case of `Clc1ccc(Nc2nnc(Cc3ccncc3)c3ccccc23)cc1` [vatalanib] + O=C1NC(=O)/C(=C/c2ccc(-c3ccc(F)cc3O)o2)S1 [AS252424] (first compound 2 µM, partner dose 1 µM), the cell count was found to be 101%.
For `C#Cc1cccc(Nc2ncnc3cc(OCCOC)c(OCCOC)cc23)c1` [erlotinib] + CN(C)S(=O)(=O)c1ccc2c(c1)/C(=C/c1cc3c([nH]1)CCCC3)C(=O)N2 [SU6656] (first compound 0.8 µM, partner dose 0.4 µM) the value was 82.9%; for `Clc1ccc(Nc2nnc(Cc3ccncc3)c3ccccc23)cc1` [vatalanib] + O=C(Nc1cccc(Cl)c1)Nc1ncc(CCNc2ncnc3ccsc23)s1 [SNS314] (first compound 2 µM, partner dose 0.0008 µM), 119%; for `C#Cc1cccc(Nc2ncnc3cc(OCCOC)c(OCCOC)cc23)c1` [erlotinib] + Cc1ccc(NC(=O)c2cccc(N(C)C)c2)cc1NC(=O)c1ccc(O)cc1 [ZM336372] (first compound 0.8 µM, partner dose 2 µM), 96.7%.
In turn, `Clc1ccc(Nc2nnc(Cc3ccncc3)c3ccccc23)cc1` [vatalanib] + CC1(C)NC(=O)N(c2ccc([N+](=O)[O-])c(C(F)(F)F)c2)C1=O [nilutamide] (first compound 2 µM, partner dose 1 µM) showed a cell count of 96.1%.
For `Clc1ccc(Nc2nnc(Cc3ccncc3)c3ccccc23)cc1` [vatalanib] + Cc1ccc(NC(=O)c2cccc(N(C)C)c2)cc1NC(=O)c1ccc(O)cc1 [ZM336372] (first compound 2 µM, partner dose 2 µM) the value was 95.9%.
`C#Cc1cccc(Nc2ncnc3cc(OCCOC)c(OCCOC)cc23)c1` [erlotinib] + COc1cc2c(Oc3ccc4[nH]c(C)cc4c3F)ncnc2cc1OCCCN1CCCC1 [cediranib] (first compound 0.8 µM, partner dose 0.4 µM): the cell count amounted to 90.8%.
The result for `Clc1ccc(Nc2nnc(Cc3ccncc3)c3ccccc23)cc1` [vatalanib] + CCc1ccc(CCOc2ccc(CC3SC(=O)NC3=O)cc2)nc1 [pioglitazone] (first compound 2 µM, partner dose 2 µM) reads 109%; that for `O=C(CCCCCCC(=O)Nc1ccccc1)NO` [vorinostat] + COc1cc2c(Oc3ccc4[nH]c(C)cc4c3F)ncnc2cc1OCCCN1CCCC1 [cediranib] (first compound 0.08 µM, partner dose 0.4 µM), 89.1%; that for `Nc1cccc2c1CN(C1CCC(=O)NC1=O)C2=O` (centres undefined) [lenalidomide] + O=C(Nc1cccc(Cl)c1)Nc1ncc(CCNc2ncnc3ccsc23)s1 [SNS314] (first compound 1 µM, partner dose 0.0008 µM), 66.9%.
The result for `Nc1cccc2c1CN(C1CCC(=O)NC1=O)C2=O` (centres undefined) [lenalidomide] + O=C(CCCCCCC(=O)Nc1ccccc1)NO [vorinostat] (first compound 1 µM, partner dose 0.08 µM) reads 80%; that for `COCC[n+]1c2c(n(Cc3cnccn3)c1C)C(=O)c1ccccc1C2=O` + COc1cc(Nc2ncc(F)c(Nc3ccc4c(n3)NC(=O)C(C)(C)O4)n2)cc(OC)c1OC [Tamatinib] (first compound 0.0004 µM, partner dose 0.4 µM), 75.9%; that for `O=C(CCCCCCC(=O)Nc1ccccc1)NO` [vorinostat] + O=C(O)c1ccc(-c2c[nH]c3ncc(-c4ccccc4)cc23)cc1C1CCCC1 [GSK650394] (first compound 0.08 µM, partner dose 0.16 µM), 68.7%.
`Clc1ccc(Nc2nnc(Cc3ccncc3)c3ccccc23)cc1` [vatalanib] + O=C(O)C(=O)Nc1sc2c(c1C(=O)O)CCNC2 [TCS401] (first compound 2 µM, partner dose 1.66667 µM) registered a cell count of 101%.
The result for `Clc1ccc(Nc2nnc(Cc3ccncc3)c3ccccc23)cc1` [vatalanib] + COc1ccc(COc2ccc(Cc3cnc(N)nc3N)cc2OC)cc1 [GW2580] (first compound 2 µM, partner dose 1 µM) reads 85.8%; that for `Clc1ccc(Nc2nnc(Cc3ccncc3)c3ccccc23)cc1` [vatalanib] + Oc1cc(-c2nc(-c3ccccc3)[nH]c2-c2ccncc2)ccc1Cl [L779450] (first compound 2 µM, partner dose 0.2 µM), 55.6%; that for `Clc1ccc(Nc2nnc(Cc3ccncc3)c3ccccc23)cc1` [vatalanib] + O=C(O)c1ccc(-c2c[nH]c3ncc(-c4ccccc4)cc23)cc1C1CCCC1 [GSK650394] (first compound 2 µM, partner dose 0.16 µM), 101%.
For `OCc1c[nH]c2ccccc12` [Indole-3-carbinol] + Cc1cc([N+](=O)[O-])ccc1NS(=O)(=O)c1cc(Cl)ccc1Cl [FH535] (first compound 0.8 µM, partner dose 1 µM), the cell count was 83.1%.
The result for `Clc1ccc(Nc2nnc(Cc3ccncc3)c3ccccc23)cc1` [vatalanib] + CC(C)(C)c1cnc(CSc2cnc(NC(=O)C3CCNCC3)s2)o1 [SNS-032] (first compound 2 µM, partner dose 0.01 µM) reads 77.9%.
Take `O=C(CCCCCCC(=O)Nc1ccccc1)NO` [vorinostat] + C[C@@H]1CCN(C(=O)CC#N)C[C@@H]1N(C)c1ncnc2[nH]ccc12 [CP690550] (first compound 0.08 µM, partner dose 1 µM): the cell count worked out at 99%.
The compound `Cn1c(Nc2ccc(C(F)(F)F)cc2)nc2cc(Oc3ccnc(-c4ncc(C(F)(F)F)[nH]4)c3)ccc21` + O=C(O)c1ccc(-c2c[nH]c3ncc(-c4ccccc4)cc23)cc1C1CCCC1 [GSK650394] (first compound 0.08 µM, partner dose 0.16 µM) gave a cell count of 56.8%.
For `OCc1c[nH]c2ccccc12` [Indole-3-carbinol] + CCN(CC)CCCCNc1ncc2cc(-c3cc(OC)cc(OC)c3)c(NC(=O)NC(C)(C)C)nc2n1 [PD173074] (first compound 0.8 µM, partner dose 0.1 µM), the cell count was found to be 97.5%.
The result for `Clc1ccc(Nc2nnc(Cc3ccncc3)c3ccccc23)cc1` [vatalanib] + O=C(Nc1ccccc1)c1cc([N+](=O)[O-])ccc1Cl [GW9662] (first compound 2 µM, partner dose 2 µM) reads 85.5%.
For `Cn1c(Nc2ccc(C(F)(F)F)cc2)nc2cc(Oc3ccnc(-c4ncc(C(F)(F)F)[nH]4)c3)ccc21` + C=CCn1c(=O)c2cnc(Nc3ccc(N4CCN(C)CC4)cc3)nc2n1-c1cccc(C(C)(C)O)n1 [MK1775] (first compound 0.08 µM, partner dose 0.02 µM) the value was 49.7%.
